Measured values taken from the supplement of paper PMC9174493.
This is one part of the list. Single values of this set are uncertain. Values with irradiation are relative to irradiated vehicle.

Tested on: A549-Dual
Assay: NF-kB reporter (SEAP) activity, viability-corrected, relative to vehicle (fold change vs vehicle); higher = more activation of STING-IRF / NF-kB immune response reporter
Conditions: 10 µM; irradiation: 8 Gy/4 fr
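Further: viability correction based on the alamar blue assay, with concentrations leaving 10% survival or less dropped.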

SMILES | NF-kB reporter
Cc1cccc(C)c1NC(=O)c1cc(S(N)(=O)=O)c(Cl)cc1O [Xipamide] | 0.835
COc1cc(/C=C/C(=O)OC2CCC34CC35CCC3(C)C(C(C)CCC=C(C)C)CCC3(C)C5CCC4C2(C)C)ccc1O (stereo unspecified) [Gamma-Oryzanol] | 0.549
CCCCN(CCCC)CC(O)c1cc(Cl)cc2c1-c1ccc(Cl)cc1/C2=C/c1ccc(Cl)cc1 (stereo unspecified) [Lumefantrine] | 0.678
Cc1nc2n(c(=O)c1CCN1CCC(c3noc4cc(F)ccc34)CC1)CCCC2 [Risperidone] | 0.703
CCCCOc1cc(C(=O)OCCN(CC)CC)ccc1N.Cl [Oxybuprocaine HCl] | 0.694
CC12CCC3c4ccc(O)cc4CCC3C1CCC2=O (stereo unspecified) [Estrone] | 0.764
NCCC(O)C(=O)NC1CC(N)C(OC2OC(CN)C(O)C(O)C2O)C(O)C1OC1OC(CO)C(O)C(N)C1O.O=S(=O)(O)O.O=S(=O)(O)O (stereo unspecified) [Amikacin disulfate] | 0.976
O=C(NC(Cc1cc(=O)[nH]c2ccccc12)C(=O)O)c1ccc(Cl)cc1 (stereo unspecified) [Rebamipide] | 0.863
CC(C)n1c(/C=C/C(O)CC(O)CC(=O)[O-])c(-c2ccc(F)cc2)c2ccccc21.[Na+] (stereo unspecified) [Fluvastatin Sodium] | 1.71
Cc1cc(C(C)(C)C)c(O)c(C(C)(C)C)c1 [Butylated hydroxytoluene] | 0.792
O=c1[nH]cnc2nc[nH]c12 [Hypoxanthine] | 1.17
CC1CC(C(=O)O)C2CCC3(C)C(=CCC4C5(C)CCC(O)C(C)(C)C5CCC43C)C2C1C (stereo unspecified) [Ursolic Acid] | 2.94
CC(=O)c1ccccc1 [Acetophenone] | 0.753
CC#CC1(O)CCC2C3CCC4=CC(=O)CCC4=C3C(c3ccc(N(C)C)cc3)CC21C (stereo unspecified) [Mifepristone] | 0.33
CCc1nn(CCCN2CCN(c3cccc(Cl)c3)CC2)c(=O)n1CCOc1ccccc1.Cl [Nefazodone hydrochloride] | 0.644
COC1C(OC(C)=O)CC(=O)OC(C)C/C=C/C=C/C(OC2CCC(N(C)C)C(C)O2)C(C)CC(CC=O)C1OC1OC(C)C(OC2CC(C)(O)C(O)C(C)O2)C(N(C)C)C1O (stereo unspecified) [Acetylspiramycin (ASPM)] | 0.723

SMILES | NF-kB reporter
OCC1OC(O)CC(O)C1O [2-Deoxy-D-glucose] | 0.984
CCCNS(=O)(=O)Nc1ncnc(OCCOc2ncc(Br)cn2)c1-c1ccc(Br)cc1 [Macitentan] | 0.803
C#CC1(O)CCC2C3CCc4cc(O)ccc4C3CCC21C (stereo unspecified) [Ethinyl Estradiol] | 1.2
COC(=O)NC(C(=O)N1C2CCC(C2)C1c1nc2ccc(-c3ccc4c(c3)C(F)(F)c3cc(-c5cnc(C6CCC7(CC7)N6C(=O)C(NC(=O)OC)C(C)C)[nH]5)ccc3-4)cc2[nH]1)C(C)C (stereo unspecified) [Ledipasvir (GS5885)] | 0.662
CCOC(=O)C1=CC2(CC)CCCN3CCc4c(n1c1ccccc41)C32 (stereo unspecified) [Vinpocetine] | 0.567
CCCCC(CC)COC(=O)C(C#N)=C(c1ccccc1)c1ccccc1 (stereo unspecified) [Octocrylene] | 0.244
CC(C)NCC(O)COc1ccc(CCOCC2CC2)cc1.Cl (stereo unspecified) [Betaxolol HCl] | 0.929
Cc1cc2c(s1)Nc1ccccc1N=C2N1CCN(C)CC1 [Olanzapine] | 1.44
CS(=O)(=O)O.Cc1c(O)cccc1C(=O)NC(CSc1ccccc1)C(O)CN1CC2CCCCC2CC1C(=O)NC(C)(C)C (stereo unspecified) [Nelfinavir Mesylate] | 0.405
CC1NCc2cc(-c3ccc4c(=O)c(C(=O)O)cn(C5CC5)c4c3OC(F)F)ccc21 (stereo unspecified) [Garenoxacin] | 1.03
O=c1cc(CO)occ1O [Kojic acid] | 1.08
CO/N=C(\C(=O)NC1C(=O)N2C(C(=O)[O-])=C(CSc3nc(=O)c([O-])nn3C)CSC12)c1csc(N)n1.[Na+].[Na+] (stereo unspecified) [Ceftriaxone Sodium Trihydrate] | 0.792
CNC1CCCN(c2c(F)cc3c(=O)c(C(=O)O)cn(C4CC4)c3c2OC)C1.O.O (stereo unspecified) [Balofloxacin Dihydrate] | 0.998
CCCCCCCC/C=C\CCCCCCCC(=O)O [Oleic Acid] | 0.89
NS(=O)(=O)c1cc2c(cc1C(F)(F)F)NC(Cc1ccccc1)NS2(=O)=O (stereo unspecified) [Bendroflumethiazide] | 0.957
